pIC50: −log10 of the molar value. By IC50 is meant the dose at which the fit gives 50% viability; fits outside the tested doses are given as limits. The AUC spans the tested range (256-fold, ending at the top dose) of the same fit; the more sensitive the line, the further below 1. For some of these results: An inferred top dose comes from the curve model; the source does not state it.
Experiments:
Assay in all cases: Viability of human cancer cell lines after 72 h of drug (GDSC screen)
[1] = compound: CNC(=O)c1cc(Oc2ccc(NC(=O)Nc3ccc(Cl)c(C(F)(F)F)c3)cc2)ccn1 [Sorafenib]; conditions: top dose 4 µM
Protocol: (§1)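 Human cancer cell lines in 384-well plates, medium with 10% serum, drug for 72 h over a 256-fold dose range (nine 2-fold or five 4-fold steps up to the top dose). Adherent lines were fixed and stained with the nucleic acid dye Syto60, suspension lines read with resazurin; signal relative to control wells, capped at 0 and 100%. One two-parameter sigmoid per drug and line, fitted in a mixed model over all curves with the slope shared within a line.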

[2] = compound: COc1cc(N2CCN(C)CC2)ccc1Nc1nc(N)c(C(=O)c2c(Cl)cccc2Cl)s1 [XMD14-99]; conditions: top dose 10.24 µM; top dose inferred
Protocol: as §1

[3] = compound: Cc1cc([N+](=O)[O-])ccc1NS(=O)(=O)c1cc(Cl)ccc1Cl [FH535]; conditions: top dose 32 µM; top dose inferred
Protocol: as §1

[4] = compound: Cc1n[nH]c2ccc(-c3cncc(OC[C@@H](N)Cc4c[nH]c5ccccc45)c3)cc12 [A-443654]; conditions: top dose 1.024 µM; top dose inferred
Protocol: as §1

[5] = compound: Cc1nc(Nc2ncc(C(=O)Nc3c(C)cccc3Cl)s2)cc(N2CCN(CCO)CC2)n1 [Dasatinib]; conditions: top dose 1.28 µM
Protocol: as §1

[6] = compound: O=C(NC1CCNCC1)c1n[nH]cc1NC(=O)c1c(Cl)cccc1Cl [AT-7519]; conditions: top dose 10.24 µM; top dose inferred
Protocol: as §1

BB65-RCC (kidney, adherent)
AUC [1]: 0.675
pIC50 [1]: 6.08
AUC [2]: 0.983
pIC50 [2]: < 4.99
AUC [3]: 0.564
pIC50 [3]: 5.51
AUC [4]: 0.824
pIC50 [4]: 6.13
AUC [5]: 0.479
pIC50 [5]: 7.16
AUC [6]: 0.821
pIC50 [6]: 5.15

SW954 (urogenital system, adherent)
AUC [1]: 0.877
pIC50 [1]: < 5.40
AUC [2]: 0.963
pIC50 [2]: < 4.99
AUC [3]: 0.692
pIC50 [3]: 5.16
AUC [4]: 0.725
pIC50 [4]: 6.55
AUC [5]: 0.505
pIC50 [5]: 7.08
AUC [6]: 0.39
pIC50 [6]: 6.50

HH (T-cell leukaemia, suspension)
AUC [1]: 0.918
pIC50 [1]: < 5.40
AUC [2]: 0.855
pIC50 [2]: < 4.99
AUC [3]: 0.785
pIC50 [3]: 4.73
AUC [4]: 0.688
pIC50 [4]: 6.59
AUC [5]: 0.961
pIC50 [5]: < 5.89
AUC [6]: 0.256
pIC50 [6]: 7.00

no-11 (glioma, adherent)
AUC [1]: 0.81
pIC50 [1]: 5.55
AUC [2]: 0.982
pIC50 [2]: < 4.99
AUC [3]: 0.649
pIC50 [3]: 5.24
AUC [4]: 0.614
pIC50 [4]: 6.84
AUC [5]: 0.748
AUC [6]: 0.768
pIC50 [6]: 5.32

NCI-H82 (small cell lung carcinoma, suspension)
AUC [1]: 0.969
pIC50 [1]: < 5.40
AUC [2]: 0.987
pIC50 [2]: < 4.99
AUC [3]: 0.77
pIC50 [3]: 4.94
AUC [4]: 0.644
pIC50 [4]: 6.80
AUC [5]: 0.988
pIC50 [5]: < 5.89
AUC [6]: 0.462
pIC50 [6]: 6.29

NCI-H1417 (small cell lung carcinoma, suspension)
AUC [1]: 0.97
pIC50 [1]: < 5.40
AUC [2]: 0.93
pIC50 [2]: < 4.99
AUC [3]: 0.801
pIC50 [3]: 4.71
AUC [4]: 0.804
pIC50 [4]: 6.20
AUC [5]: 0.982
pIC50 [5]: < 5.89
AUC [6]: 0.433
pIC50 [6]: 6.39

BV-173 (chronic myeloid leukaemia, suspension)
AUC [1]: 0.782
pIC50 [1]: 5.83
AUC [2]: 0.965
pIC50 [2]: < 4.99
AUC [3]: 0.652
pIC50 [3]: 5.30
AUC [4]: 0.729
pIC50 [4]: 6.58
AUC [5]: 0.067
pIC50 [5]: > 8.30
AUC [6]: 0.319
pIC50 [6]: 6.67

LU-134-A (small cell lung carcinoma, suspension)
AUC [1]: 0.98
pIC50 [1]: < 5.40
AUC [2]: 0.986
pIC50 [2]: < 4.99
AUC [3]: 0.985
pIC50 [3]: < 4.49
AUC [4]: 0.735
pIC50 [4]: 6.50
AUC [5]: 0.987
pIC50 [5]: < 5.89
AUC [6]: 0.568
pIC50 [6]: 6.00

GR-ST (lymphoblastic leukaemia, suspension)
AUC [1]: 0.975
pIC50 [1]: < 5.40
AUC [2]: 0.896
pIC50 [2]: < 4.99
AUC [3]: 0.739
pIC50 [3]: 4.95
AUC [4]: 0.783
pIC50 [4]: 6.27
AUC [5]: 0.933
pIC50 [5]: < 5.89
AUC [6]: 0.399
pIC50 [6]: 6.50

OPM-2 (myeloma, suspension)
AUC [1]: 0.93
pIC50 [1]: < 5.40
AUC [2]: 0.96
pIC50 [2]: < 4.99
AUC [3]: 0.88
pIC50 [3]: 4.64
AUC [4]: 0.765
pIC50 [4]: 6.51
AUC [5]: 0.941
pIC50 [5]: < 5.89
AUC [6]: 0.446
pIC50 [6]: 6.33

SU-DHL-8 (B-cell lymphoma, suspension)
AUC [1]: 0.752
pIC50 [1]: 5.90
AUC [2]: 0.963
pIC50 [2]: < 4.99
AUC [3]: 0.647
pIC50 [3]: 5.30
AUC [4]: 0.511
pIC50 [4]: 7.16
AUC [5]: 0.93
pIC50 [5]: < 5.89
AUC [6]: 0.191
pIC50 [6]: 7.08

MN-60 (B-cell leukaemia, suspension)
AUC [1]: 0.964
pIC50 [1]: < 5.40
AUC [2]: 0.937
pIC50 [2]: < 4.99
AUC [3]: 0.84
pIC50 [3]: 4.63
AUC [4]: 0.841
pIC50 [4]: 6.12
AUC [5]: 0.917
pIC50 [5]: < 5.89
AUC [6]: 0.526
pIC50 [6]: 6.12

MLMA (hairy cell leukaemia, semi-adherent)
AUC [1]: 0.984
pIC50 [1]: < 5.40
AUC [2]: 0.986
pIC50 [2]: < 4.99
AUC [3]: 0.744
pIC50 [3]: 5.00
AUC [4]: 0.771
pIC50 [4]: 6.40
AUC [5]: 0.58
pIC50 [5]: 6.88
AUC [6]: 0.303
pIC50 [6]: 6.75

HCC1599 (breast, suspension)
AUC [1]: 0.956
pIC50 [1]: < 5.40
AUC [2]: 0.968
pIC50 [2]: < 4.99
AUC [3]: 0.76
pIC50 [3]: 4.89
AUC [4]: 0.639
pIC50 [4]: 6.78
AUC [5]: 0.96
pIC50 [5]: < 5.89
AUC [6]: 0.352
pIC50 [6]: 6.63

no-10 (glioma, adherent)
AUC [1]: 0.792
pIC50 [1]: 5.64
AUC [2]: 0.981
pIC50 [2]: < 4.99
AUC [3]: 0.802
pIC50 [3]: 4.70
AUC [4]: 0.602
pIC50 [4]: 6.89
AUC [5]: 0.677
pIC50 [5]: 6.55
AUC [6]: 0.598
pIC50 [6]: 5.90

OCI-M1 (acute myeloid leukaemia, suspension)
AUC [1]: 0.903
pIC50 [1]: 5.52
AUC [2]: 0.967
pIC50 [2]: < 4.99
AUC [3]: 0.609
pIC50 [3]: 5.43
AUC [4]: 0.902
pIC50 [4]: 6.11
AUC [5]: 0.989
pIC50 [5]: < 5.89
AUC [6]: 0.473
pIC50 [6]: 6.26

WSU-NHL (lymphoid neoplasm, suspension)
AUC [1]: 0.961
pIC50 [1]: < 5.40
AUC [2]: 0.985
pIC50 [2]: < 4.99
AUC [3]: 0.781
pIC50 [3]: 4.94
AUC [4]: 0.99
pIC50 [4]: < 5.99
AUC [5]: 0.99
pIC50 [5]: < 5.89
AUC [6]: 0.824
pIC50 [6]: 5.29

LB2241-RCC (kidney, adherent)
AUC [1]: 0.844
pIC50 [1]: 5.47
AUC [2]: 0.982
pIC50 [2]: < 4.99
AUC [3]: 0.549
pIC50 [3]: 5.56
AUC [4]: 0.909
pIC50 [4]: < 5.99
AUC [5]: 0.677
pIC50 [5]: 6.58
AUC [6]: 0.984
pIC50 [6]: < 4.99

EW-3 (Ewing sarcoma, adherent)
AUC [1]: 0.934
pIC50 [1]: < 5.40
AUC [2]: 0.953
pIC50 [2]: < 4.99
AUC [3]: 0.856
pIC50 [3]: 4.50
AUC [4]: 0.847
pIC50 [4]: 6.03
AUC [5]: 0.984
pIC50 [5]: < 5.89
AUC [6]: 0.697
pIC50 [6]: 5.60

UACC-257 (melanoma, adherent)
AUC [1]: 0.88
pIC50 [1]: < 5.40
AUC [2]: 0.946
pIC50 [2]: < 4.99
AUC [3]: 0.608
pIC50 [3]: 5.37
AUC [4]: 0.761
pIC50 [4]: 6.35
AUC [5]: 0.938
pIC50 [5]: < 5.89
AUC [6]: 0.879
pIC50 [6]: < 4.99

JiyoyeP-2003 (Burkitt lymphoma, suspension)
AUC [1]: 0.905
pIC50 [1]: < 5.40
AUC [2]: 0.991
pIC50 [2]: < 4.99
AUC [3]: 0.665
pIC50 [3]: 5.27
AUC [4]: 0.662
pIC50 [4]: 6.77
AUC [5]: 0.82
pIC50 [5]: 6.21
AUC [6]: 0.401
pIC50 [6]: 6.45

COLO-684 (endometrium, suspension)
AUC [1]: 0.93
pIC50 [1]: < 5.40
AUC [2]: 0.985
pIC50 [2]: < 4.99
AUC [3]: 0.755
AUC [4]: 0.544
pIC50 [4]: 7.07
AUC [5]: 0.947
pIC50 [5]: < 5.89
AUC [6]: 0.518
pIC50 [6]: 6.14
